Reference: the supplement of paper PMC10126150
Values marked as one replicate rest on one cluster of the flow cell; about a third of the high ones do not repeat.
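Note: ATP exposure 15 min at 22 °C before imaging.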

These sequences were tested on ATP (assay: switch fluorescence ratio, 500 uM ATP over buffer (Cy3 cluster intensity, sum of 5 cycles each) (fold (ratio)); higher = stronger signal-on switching upon ATP binding; sequences stand for … in TCGTCGGCAGCGTCAGATGTGTATAAGAGACAGTTTTTTTTTTTTTTTTTTTTTTTTT…TC). Details: aptamer strand: ATP DNA aptamer (quencher-CACCTGGGGGAGTATTGCGGAGGAAGG + anchor), 100 nM annealed; ATP concentration: 500 uM; one replicate.
In short: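 After annealing to 100 nM quencher-labelled ATP aptamer, Cy3-labelled switching-strand clusters on a modified Illumina MiSeq flow-cell were imaged in selection buffer. A second image followed after 15 min with 500 uM ATP at 22 °C, and five such buffer/ATP cycles were done, each separated by NaOH stripping and re-annealing. The fluorescence ratio, averaged per switch-domain sequence, is summed target-cycle over summed buffer-cycle Cy3 intensity per cluster, with clusters outside 100-1000 RFU excluded.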
With AAACGGGGA the switch fluorescence ratio was 1.02. CATCTTAGGT was tested, and the switch fluorescence ratio was 1.05. AGTTCGGGC was tested, and the switch fluorescence ratio was 0.975. With TTCTTGAGGG the switch fluorescence ratio was 0.956. Work on TCACATTCTC yielded a switch fluorescence ratio of 1.06. Work on ACAACTATC yielded a switch fluorescence ratio of 1.12. With ACGATGTAAT the switch fluorescence ratio was 1.16. In the case of GACCCCAAGC, the switch fluorescence ratio is reported as 1.13. For ATCATCCAAG, the switch fluorescence ratio was 0.994. With ACGGCCAGTG the switch fluorescence ratio was 1.09. Sequence GCTACTTTT has a switch fluorescence ratio of 0.995. CCGGTGGCAT was tested, and the switch fluorescence ratio was 2.43. For GCTGCCCAAC, the switch fluorescence ratio was 1.11. With CGAGCCGAGG the switch fluorescence ratio was 1.11. For AATCGCGGGA, the switch fluorescence ratio was 0.999. Sequence TGGCCCGGCG has a switch fluorescence ratio of 1.07. In the case of CCTGGTGCAG, the switch fluorescence ratio is reported as 1.13. Work on ACTTGGAGTA yielded a switch fluorescence ratio of 0.987. With AAAGTATAGG the switch fluorescence ratio was 0.927. With ACTCTCTTAA the switch fluorescence ratio was 0.982. TCTAATCATT showed a switch fluorescence ratio of 1. For ACTCGGGCCC, the switch fluorescence ratio was 0.998. For ACCTTTAAGA, the switch fluorescence ratio was 1. Work on GACCTTACCG yielded a switch fluorescence ratio of 1.54. AATGAGGATC showed a switch fluorescence ratio of 0.991. TGCGATCAGT showed a switch fluorescence ratio of 0.985. With AGTGAGCGG the switch fluorescence ratio was 1.05. With TGCGGTCAAG the switch fluorescence ratio was 0.998. Sequence TAGGCA has a switch fluorescence ratio of 0.99. With ATCAAATTAC the switch fluorescence ratio was 1.06. With CTAAACTGCA the switch fluorescence ratio was 1.03. Work on TCCCAGACCC yielded a switch fluorescence ratio of 1.02. In the case of GACAGCGTAA, the switch fluorescence ratio is reported as 1.01. With CGAATTGTGC the switch fluorescence ratio was 0.954. ACAGGTTAGC showed a switch fluorescence ratio of 1.01. GCTTGTTGCT gave a switch fluorescence ratio of 0.99. ACGGACATAG showed a switch fluorescence ratio of 0.993. CCGGTGTATC showed a switch fluorescence ratio of 1.23. CCGCCCAGGT was tested, and the switch fluorescence ratio was 1.03. TGCAACAAGA showed a switch fluorescence ratio of 1.06. For GCCCAGACCT, the switch fluorescence ratio was 1.1. Sequence CTAGATCAGT has a switch fluorescence ratio of 0.978. For GAGCCAGACT, the switch fluorescence ratio was 1.07. Work on AGTCCGTGTC yielded a switch fluorescence ratio of 1.09. In the case of CGTCGAGGAG, the switch fluorescence ratio is reported as 0.962. AGGGCAGCC showed a switch fluorescence ratio of 0.983. For GCCAAAGCTG, the switch fluorescence ratio was 1.04. AGGGATGTAT was tested, and the switch fluorescence ratio was 1.02. For CGAGAGGTAT, the switch fluorescence ratio was 0.991. Sequence GTTACAGGTT has a switch fluorescence ratio of 1.03. In the case of TGATAACGTG, the switch fluorescence ratio is reported as 1. TAGCTTTCGG gave a switch fluorescence ratio of 0.991. For CCGAGTCCCG, the switch fluorescence ratio was 1.19. TCTGGTATGC showed a switch fluorescence ratio of 1.01. Sequence TAAGTCTGG has a switch fluorescence ratio of 1.07. AGGCTGCGTA gave a switch fluorescence ratio of 0.995. GAAATTGGTG was tested, and the switch fluorescence ratio was 1.02. With TTTTCCGCCA the switch fluorescence ratio was 1.97. CAGTGAACGA was tested, and the switch fluorescence ratio was 1.02. With CTTATTAGG the switch fluorescence ratio was 0.977. GGACATTATC was tested, and the switch fluorescence ratio was 0.995. AAGGGGTGCG gave a switch fluorescence ratio of 1.11. For GATGGGTAGG, the switch fluorescence ratio was 0.986. With CGATGTGTCA the switch fluorescence ratio was 0.944. TGCGCGTCTT showed a switch fluorescence ratio of 1.04. In the case of GAGTCGAAGA, the switch fluorescence ratio is reported as 0.989. With TGGAACCGCC the switch fluorescence ratio was 1.76. GTTTAATCAC gave a switch fluorescence ratio of 1.06. With TAACGCCTGT the switch fluorescence ratio was 0.977. Sequence ATTCGGGGTA has a switch fluorescence ratio of 0.962. GACTTTGCAT was tested, and the switch fluorescence ratio was 1.27. For GAACGGATTA, the switch fluorescence ratio was 1.06. Work on GTGTACAAGT yielded a switch fluorescence ratio of 0.941. GAATGGGCTG was tested, and the switch fluorescence ratio was 1.01. For TATCAAATGT, the switch fluorescence ratio was 0.959. For CCGAGTATGG, the switch fluorescence ratio was 1.11. AAACTCGGCC gave a switch fluorescence ratio of 1.1. Work on CTTTCCTCGG yielded a switch fluorescence ratio of 1.08. Work on GCAAGGCGG yielded a switch fluorescence ratio of 1.04. ATGCCTGGG was tested, and the switch fluorescence ratio was 0.99. TCACCGGTCA gave a switch fluorescence ratio of 1.01. ACTTTTCATC was tested, and the switch fluorescence ratio was 1. For CTATTTGCAA, the switch fluorescence ratio was 1.41. Sequence GCCTTCCTAA has a switch fluorescence ratio of 2.59. Work on CGTATAAGGG yielded a switch fluorescence ratio of 0.905. For TTATTTTACT, the switch fluorescence ratio was 1.04. In the case of CATGCAAGCG, the switch fluorescence ratio is reported as 1.05. With AACGTCATGC the switch fluorescence ratio was 1.16. For AACGCTGGCA, the switch fluorescence ratio was 1.01. GTTAGTAATG gave a switch fluorescence ratio of 0.995. For CTAGGACGGG, the switch fluorescence ratio was 0.974. GCAAATGGCC was tested, and the switch fluorescence ratio was 1.02. GCTACAACTA was tested, and the switch fluorescence ratio was 1.01. In the case of ACGTGATCAG, the switch fluorescence ratio is reported as 1.02. GTCGGGCACT gave a switch fluorescence ratio of 0.953. With CAGAATTATT the switch fluorescence ratio was 1.05. For GATTGCGTTG, the switch fluorescence ratio was 1.01. For GTGGGCTAGG, the switch fluorescence ratio was 0.986. CCACATTCCG was tested, and the switch fluorescence ratio was 1.1. In the case of CAGCCAGTTT, the switch fluorescence ratio is reported as 0.992. With AGTTACAGCG the switch fluorescence ratio was 0.988. Sequence AGGACGTGCG has a switch fluorescence ratio of 1.02. For AGTCCAGATA, the switch fluorescence ratio was 0.986. With ACAGTCTCAT the switch fluorescence ratio was 1.03. In the case of CTAGTATTGT, the switch fluorescence ratio is reported as 0.995. For AAGAATGTCG, the switch fluorescence ratio was 0.898. In the case of TTTGCGTTCT, the switch fluorescence ratio is reported as 0.921. GGTTAGTGCT was tested, and the switch fluorescence ratio was 0.947. TGAGTGAGTT showed a switch fluorescence ratio of 0.97. ATTACGTCTA showed a switch fluorescence ratio of 1.01. AATACAGGCA gave a switch fluorescence ratio of 0.969. With TATAGAGAAC the switch fluorescence ratio was 1.05. GGGTGCAGG gave a switch fluorescence ratio of 1. Work on CTCGATAAAG yielded a switch fluorescence ratio of 0.981. With ATTGCCGATG the switch fluorescence ratio was 0.965. GCGATGAAAT was tested, and the switch fluorescence ratio was 1.05. AATTTGAAGT was tested, and the switch fluorescence ratio was 1.01. AGAGCAGGAT showed a switch fluorescence ratio of 1.03. GAGGGACTT gave a switch fluorescence ratio of 1. Sequence TATTAAGGTC has a switch fluorescence ratio of 1.02. CGGAATGAAT was tested, and the switch fluorescence ratio was 1.02. CATTCACACC gave a switch fluorescence ratio of 1.11. With TGTACCGCAG the switch fluorescence ratio was 1.23. AAGTTACGCA showed a switch fluorescence ratio of 1.11. In the case of TTCTGGGTAT, the switch fluorescence ratio is reported as 0.976. With AGTGTTGGTC the switch fluorescence ratio was 1. With GGTAAATGAA the switch fluorescence ratio was 1.01. In the case of GGCGGCACGG, the switch fluorescence ratio is reported as 0.997. GTAGTGCCTG gave a switch fluorescence ratio of 0.994. GCACGAGG was tested, and the switch fluorescence ratio was 0.999. Work on GGTTAACGGG yielded a switch fluorescence ratio of 1.05. AGTGTGGGAT gave a switch fluorescence ratio of 1.03. TAGCATGTAT was tested, and the switch fluorescence ratio was 1.02. In the case of TGGTATTAGT, the switch fluorescence ratio is reported as 1. AACACTTGTA gave a switch fluorescence ratio of 1.01. For CTCCATACAC, the switch fluorescence ratio was 1.99. For GTGTGCGCTA, the switch fluorescence ratio was 1.02. Work on TGCCGGGGCA yielded a switch fluorescence ratio of 0.997. TTCAAGAAGG was tested, and the switch fluorescence ratio was 1.01. For CATTTAATCT, the switch fluorescence ratio was 1.01. Sequence CGTGCTACGG has a switch fluorescence ratio of 0.972. In the case of TAAGATTATT, the switch fluorescence ratio is reported as 0.974. TTATACCTGA was tested, and the switch fluorescence ratio was 1.08. TTTAAATCTA was tested, and the switch fluorescence ratio was 0.988. AATATTTGCC gave a switch fluorescence ratio of 1.01. TATATGTAA was tested, and the switch fluorescence ratio was 1.01. With ACGTTTTTCG the switch fluorescence ratio was 0.989. Work on CTGGGCGCGT yielded a switch fluorescence ratio of 1.01. With TTATAAGCTG the switch fluorescence ratio was 1.01. Work on AGTTTATTTC yielded a switch fluorescence ratio of 1.02. For CCACTGGTTT, the switch fluorescence ratio was 1.04. In the case of GATGTCGAAA, the switch fluorescence ratio is reported as 0.99. Sequence CTTATCTACC has a switch fluorescence ratio of 1.04. For CGGTGAAGGT, the switch fluorescence ratio was 0.962. In the case of CTAGAGTATG, the switch fluorescence ratio is reported as 0.983. In the case of GGGGTATCCC, the switch fluorescence ratio is reported as 0.989. For TCACACGAGA, the switch fluorescence ratio was 1.06.
